{"source": "the supplement of paper PMC8728848", "binders": {"B1": {"name": "Nc3LysM (protein)", "chain": "QFTVPPDTTAEPNTIKTCTWWHVAGSGDSCTSIASTYGITSEQFARWDMETTDSPKNPSVATACKLTVGNSYCIENNFGQDDPPTPSISSSTLIGTATTSTTASTTTGNGISTPTPIQEGMETATTTTSSGNGITTPTPTQAGMETVGNCDRFHLVKSGDQCGTIASTYGITLANFYSWNPAVGTSCQSLWLDTYVCVRTIGFVPPKTTTTTTKKPTSTTSAGGVATPTPTQPGMETVSGCKKFHKGRGNVSTVASGDQCGTIATRYGISLANFYSWNPAVGSSCQTLWLDYYVCVGR"}}, "assay_in_all_cases": "glycan array binding signal (z-score within array); higher = stronger binding", "settings_in_all_cases": "glycan notation: IUPAC condensed, linker removed", "key": {"GlcNAc(b1-3)Man": {"biological_target": "GlcNAc(b1-3)Man", "method_in_brief": "(§1)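 Arrays were curated from the Consortium for Functional Glycomics database, 3228 in total, and kept only where the protein sequence was available. Binding is expressed as a within-array Z-score. This score was averaged across arrays of the same protein sequence at different concentrations or buffers and across linkers, and negative values can be read as non-binding.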"}, "[1]": {"biological_target": "GlcNAc(b1-3)[GlcNAc(b1-4)][GlcNAc(b1-6)]GlcNAc", "method_in_brief": "as §1"}, "[2]": {"biological_target": "GlcNAc(b1-3)[GlcNAc(b1-6)]Gal(b1-4)GlcNAc", "method_in_brief": "as §1"}, "[3]": {"biological_target": "GlcNAc(b1-3)[GlcNAc(b1-6)]GalNAc", "method_in_brief": "as §1"}, "[4]": {"biological_target": "GlcNAc(b1-4)Gal(b1-4)GlcNAc", "method_in_brief": "as §1"}, "GlcNAc(b1-4)GlcNAc": {"biological_target": "GlcNAc(b1-4)GlcNAc", "method_in_brief": "as §1"}, "[5]": {"biological_target": "GlcNAc(b1-4)GlcNAc(b1-4)GlcNAc", "method_in_brief": "as §1"}, "[6]": {"biological_target": "GlcNAc(b1-4)GlcNAc(b1-4)GlcNAc(b1-4)GlcNAc(b1-4)GlcNAc", "method_in_brief": "as §1"}, "[7]": {"biological_target": "GlcNAc(b1-4)GlcNAc(b1-4)GlcNAc(b1-4)GlcNAc(b1-4)GlcNAc(b1-4)GlcNAc", "method_in_brief": "as §1"}, "[8]": {"biological_target": "GlcNAc(b1-4)[GlcNAc(b1-6)]GalNAc", "method_in_brief": "as §1"}, "[9]": {"biological_target": "GlcNAc(b1-6)Gal(b1-4)GlcNAc", "method_in_brief": "as §1"}, "GlcNAc(b1-6)GalNAc": {"biological_target": "GlcNAc(b1-6)GalNAc", "method_in_brief": "as §1"}, "[10]": {"biological_target": "GlcNAc6S(b1-3)Gal(b1-4)GlcNAc", "method_in_brief": "as §1"}, "Kdn(a2-3)Gal(b1-3)GalNAc": {"biological_target": "Kdn(a2-3)Gal(b1-3)GalNAc", "method_in_brief": "as §1"}, "Kdn(a2-3)Gal(b1-3)GlcNAc": {"biological_target": "Kdn(a2-3)Gal(b1-3)GlcNAc", "method_in_brief": "as §1"}, "Kdn(a2-3)Gal(b1-4)Glc": {"biological_target": "Kdn(a2-3)Gal(b1-4)Glc", "method_in_brief": "as §1"}, "Kdn(a2-3)Gal(b1-4)GlcNAc": {"biological_target": "Kdn(a2-3)Gal(b1-4)GlcNAc", "method_in_brief": "as §1"}, "[11]": {"biological_target": "Kdn(a2-3)Gal(b1-4)[Fuc(a1-3)]GlcNAc", "method_in_brief": "as §1"}, "Kdn(a2-6)Gal(b1-4)GlcNAc": {"biological_target": "Kdn(a2-6)Gal(b1-4)GlcNAc", "method_in_brief": "as §1"}, "[12]": {"biological_target": "Man(a1-2)Man(a1-2)Man(a1-3)Man", "method_in_brief": "as §1"}, "[13]": {"biological_target": "Man(a1-2)Man(a1-2)Man(a1-6)[Man(a1-3)]Man", "method_in_brief": "as §1"}, "Man(a1-2)Man(a1-3)Man": {"biological_target": "Man(a1-2)Man(a1-3)Man", "method_in_brief": "as §1"}, "[14]": {"biological_target": "Man(a1-2)Man(a1-3)[Man(a1-2)Man(a1-6)]Man", "method_in_brief": "as §1"}, "[15]": {"biological_target": "Man(a1-2)Man(a1-3)[Man(a1-2)Man(a1-6)]Man(a1-6)[Man(a1-2)Man(a1-2)Man(a1-3)]Man", "method_in_brief": "as §1"}, "[16]": {"biological_target": "Man(a1-2)Man(a1-3)[Man(a1-2)Man(a1-6)]Man(a1-6)[Man(a1-2)Man(a1-2)Man(a1-3)]Man(b1-4)GlcNAc(b1-4)GlcNAc", "method_in_brief": "as §1"}, "[17]": {"biological_target": "Man(a1-2)Man(a1-3)[Man(a1-6)]Man(a1-6)[Man(a1-2)Man(a1-3)]Man(b1-4)GlcNAc(b1-4)GlcNAc", "method_in_brief": "as §1"}, "[18]": {"biological_target": "Man(a1-2)Man(a1-6)[Man(a1-3)]Man(a1-6)[Man(a1-2)Man(a1-2)Man(a1-3)]Man", "method_in_brief": "as §1"}, "[19]": {"biological_target": "Man(a1-2)Man(a1-6)[Man(a1-3)]Man(a1-6)[Man(a1-2)Man(a1-2)Man(a1-3)]Man(b1-4)GlcNAc(b1-4)GlcNAc", "method_in_brief": "as §1"}, "Man(a1-3)[Man(a1-6)]Man": {"biological_target": "Man(a1-3)[Man(a1-6)]Man", "method_in_brief": "as §1"}, "[20]": {"biological_target": "Man(a1-3)[Man(a1-6)]Man(a1-6)[Man(a1-2)Man(a1-3)]Man(b1-4)GlcNAc(b1-4)GlcNAc", "method_in_brief": "as §1"}, "[21]": {"biological_target": "Man(a1-3)[Man(a1-6)]Man(a1-6)[Man(a1-3)]Man", "method_in_brief": "as §1"}, "[22]": {"biological_target": "Man(a1-3)[Man(a1-6)]Man(a1-6)[Man(a1-3)]Man(b1-4)GlcNAc(b1-4)GlcNAc", "method_in_brief": "as §1"}, "[23]": {"biological_target": "Man(a1-3)[Man(a1-6)]Man(b1-4)GlcNAc(b1-4)GlcNAc", "method_in_brief": "as §1"}, "[24]": {"biological_target": "Man(a1-3)[Man(a1-6)]Man(b1-4)GlcNAc(b1-4)[Fuc(a1-6)]GlcNAc", "method_in_brief": "as §1"}, "Man(a1-6)Man": {"biological_target": "Man(a1-6)Man", "method_in_brief": "as §1"}, "Man(b1-4)GlcNAc": {"biological_target": "Man(b1-4)GlcNAc", "method_in_brief": "as §1"}, "MurNAc(b1-4)GlcNAc": {"biological_target": "MurNAc(b1-4)GlcNAc", "method_in_brief": "as §1"}, "Neu5Ac(a2-3)Gal": {"biological_target": "Neu5Ac(a2-3)Gal", "method_in_brief": "as §1"}}, "note": "The list shows a part of the results."}
{"binder": "B1", "values": [{"measurement": "glycan array binding signal (z-score)", "setting": "GlcNAc(b1-3)Man", "value": 0.172}, {"measurement": "glycan array binding signal (z-score)", "setting": "[1]", "value": -0.087}, {"measurement": "glycan array binding signal (z-score)", "setting": "[2]", "value": -0.279}, {"measurement": "glycan array binding signal (z-score)", "setting": "[3]", "value": -0.162}, {"measurement": "glycan array binding signal (z-score)", "setting": "[4]", "value": 0.016}, {"measurement": "glycan array binding signal (z-score)", "setting": "GlcNAc(b1-4)GlcNAc", "value": -0.028}, {"measurement": "glycan array binding signal (z-score)", "setting": "[5]", "value": 2.52}, {"measurement": "glycan array binding signal (z-score)", "setting": "[6]", "value": 17.3}, {"measurement": "glycan array binding signal (z-score)", "setting": "[7]", "value": 16.7}, {"measurement": "glycan array binding signal (z-score)", "setting": "[8]", "value": -0.069}, {"measurement": "glycan array binding signal (z-score)", "setting": "[9]", "value": 0.007}, {"measurement": "glycan array binding signal (z-score)", "setting": "GlcNAc(b1-6)GalNAc", "value": -0.113}, {"measurement": "glycan array binding signal (z-score)", "setting": "[10]", "value": -0.118}, {"measurement": "glycan array binding signal (z-score)", "setting": "Kdn(a2-3)Gal(b1-3)GalNAc", "value": -0.184}, {"measurement": "glycan array binding signal (z-score)", "setting": "Kdn(a2-3)Gal(b1-3)GlcNAc", "value": -0.059}, {"measurement": "glycan array binding signal (z-score)", "setting": "Kdn(a2-3)Gal(b1-4)Glc", "value": -0.043}, {"measurement": "glycan array binding signal (z-score)", "setting": "Kdn(a2-3)Gal(b1-4)GlcNAc", "value": 0.027}, {"measurement": "glycan array binding signal (z-score)", "setting": "[11]", "value": 0.038}, {"measurement": "glycan array binding signal (z-score)", "setting": "Kdn(a2-6)Gal(b1-4)GlcNAc", "value": -0.076}, {"measurement": "glycan array binding signal (z-score)", "setting": "[12]", "value": 0.193}, {"measurement": "glycan array binding signal (z-score)", "setting": "[13]", "value": -0.063}, {"measurement": "glycan array binding signal (z-score)", "setting": "Man(a1-2)Man(a1-3)Man", "value": 0.234}, {"measurement": "glycan array binding signal (z-score)", "setting": "[14]", "value": -0.221}, {"measurement": "glycan array binding signal (z-score)", "setting": "[15]", "value": -0.142}, {"measurement": "glycan array binding signal (z-score)", "setting": "[16]", "value": -0.293}, {"measurement": "glycan array binding signal (z-score)", "setting": "[17]", "value": -0.168}, {"measurement": "glycan array binding signal (z-score)", "setting": "[18]", "value": -0.084}, {"measurement": "glycan array binding signal (z-score)", "setting": "[19]", "value": -0.189}, {"measurement": "glycan array binding signal (z-score)", "setting": "Man(a1-3)[Man(a1-6)]Man", "value": -0.103}, {"measurement": "glycan array binding signal (z-score)", "setting": "[20]", "value": -0.231}, {"measurement": "glycan array binding signal (z-score)", "setting": "[21]", "value": -0.105}, {"measurement": "glycan array binding signal (z-score)", "setting": "[22]", "value": -0.033}, {"measurement": "glycan array binding signal (z-score)", "setting": "[23]", "value": -0.151}, {"measurement": "glycan array binding signal (z-score)", "setting": "[24]", "value": 0.04}, {"measurement": "glycan array binding signal (z-score)", "setting": "Man(a1-6)Man", "value": -0.101}, {"measurement": "glycan array binding signal (z-score)", "setting": "Man(b1-4)GlcNAc", "value": -0.17}, {"measurement": "glycan array binding signal (z-score)", "setting": "MurNAc(b1-4)GlcNAc", "value": -0.102}, {"measurement": "glycan array binding signal (z-score)", "setting": "Neu5Ac(a2-3)Gal", "value": -0.255}]}
